Experimental data published in US20050050587A1, “Inducers of plant disease resistance” (priority 2003, published 2005).
The name of at least one read-out is uncertain.

Test system: PR-1a protein
Test: Induction and quantification of PR-1a protein after leaf infiltration of tobacco
Format: in vivo, Nicotiana tabacum (Xanthi nc)
Details: 96 h post infiltration, compared to 1 mM SA; for Mean PR Induction (relative induction of PR-1a protein): which equals 1; for Mean PR Protein Induction: 1 mM, which equals 1 (Table 5)
Description: Tobacco (Nicotiana tabacum) plants (Xanthi nc) were grown in Promix PGX at 25 C and a 16/8 h photoperiod. Plants were fed a 1 g/L concentration of 20-20-20 (N-P-K fertilizer) twice a week. The Xanthi-nc variety carries the N-gene for resistance to TMV.
For evaluating pathogenesis-related protein induction, test compounds were dissolved in ethanol and dispersed in water (0.1% v/v ethanol). The most recently fully-expanded leaf on each plant was selected for infiltration. Infiltration was accomplished using a 5 mL disposable syringe (without needle). The solution was forced through the stomates of the abaxial surface of the leaf. Treatment solution was infiltrated into the leaf until the leaf was saturated.
All harvests were performed 96 hours after infiltration unless indicated. Briefly, treated leaves were de-veined, the remaining tissue was cut into 1 cm×1 cm pieces and vacuum-infiltrated with ice-cold extraction buffer. […] The extracellular fluid containing the acidic PR-1a protein was collected by centrifugation at 1000 g for 10 minutes at 4° C. After collection, samples were stored at −80° C. Protein concentrations of extracellular fluids were determined by Bradford dye reagent (BioRad, Richmond, Calif.) used BSA as a standard. Eight to ten μg of each protein sample were analyzed by electrophoresis on 14% Native Polyacrylamide gels (14% pre-cast Tris-Glycine gels; Invitrogen, Carlsbad, Calif.). Gels were stained with colloidal blue staining reagent (Invitrogen), and PR-1a protein was quantitated using a Model GS-710 densitometer (BioRad).

O=C(O)c1ccccc1S [Thiosalicylic acid]
Mean PR Induction (relative induction of PR-1a protein): 0.59

O=C(O)c1ccc(Cl)cc1O [4-Chlorosalicylic acid, reference compound]
Mean PR Protein Induction: 0.32
Mean PR Induction (relative induction of PR-1a protein): 0.32

O=C(O)c1cccc(Cl)c1O [3-Chlorosalicylic acid]
Mean PR Protein Induction: 2.67
Mean PR Induction (relative induction of PR-1a protein): 2.67

Nc1ccc(C(=O)O)c(O)c1 [4-Aminosalicylic acid]
Mean PR Protein Induction: 0.08
Mean PR Induction (relative induction of PR-1a protein): 0.07

Cc1ccc(O)c(C(=O)O)c1 [5-Methylsalicylic acid]
Mean PR Induction (relative induction of PR-1a protein): 0

O=C(O)c1ccccc1 [Benzoic acid]
Mean PR Induction (relative induction of PR-1a protein): 0

Cc1cccc(O)c1C(=O)O [6-Methylsalicylic acid]
Mean PR Induction (relative induction of PR-1a protein): 0.16
